Laboratory results: the RNAGym collection of RNA variant scans (doi:10.1073/pnas.2313332121)
Variants at the floor of the assay are shown more often than the library holds them.

B1: TPR 5TU (parent)
chain: GGAUCUUCUCGAUCUAACAAAAAAGACAAAUCUGCCACAAAGCUUGAGAGCAUCUUCGGAUGCAGAGGCGGCAGCCUUCGGUGGCGCGAUAGCGCCAACGUUCUCAACUAUGACACGCAAAACGCGUGCUCCGUUGAAUGGAGUUUAUCAUG

Variants of: B1
Experiment: polymerase ribozyme fitness, log enrichment relative to wild type (log ratio); higher = more active; in vitro selection for triplet polymerase activity
Procedure, shortened: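 After PCR construction and transcription, each subunit's mutant library from a heterodimeric triplet polymerase ribozyme was annealed with a biotinylated primer, the partner subunit and triplets. Incubation was frozen, at −7 °C, and extended constructs were gel-excised, bound to streptavidin beads and amplified by RT-PCR, in one selection round done in triplicate. Fitness is the logarithm of a genotype's enrichment divided by that of the wild type, from inverse-variance-weighted replicate averages of Illumina-sequenced inputs and outputs. The base of the logarithm is 2, and genotypes needed ≥10 input reads and ≥1 read per output.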

Variant	polymerase ribozyme fitness (log ratio)
A19C A23G A24G U31A C35A A40U G48A C79A G140A	≤ -4.2
A19C A39G A47C U127C	≤ -4.2
C18G G25U A28U G71C A91C C96U C114U A121C A137U	≤ -4.2
C18U G84A U102A C123G	-2.76
C18G A60C G84U C125U	-3.76
C18U A19C C35A G83C C95U C103G A106G	≤ -4.2
A19G C57U C69G C75A C125A	≤ -4.2
C18U A22C U77G G83U G133U	≤ -4.2
A19C U55G G67C U78G G83U C93A U102A A121C	≤ -4.2
C18G C57U	-0.371
A19C U55A A73U U82G G92A C93G U135A G152A	≤ -4.2
A19G G48U A52G C85A A89C A122C	≤ -4.2
C18G G80C	≤ -4.2
C18U A37C A49C C51U U55A C95U U127A G136A U139A	≤ -4.2
C18U U44A G50A A52U G74A A91U C105G A106G C129G	≤ -4.2
A19G A49C U61A C93U C95U C103U G140A	≤ -4.2
A19G G58A A66C C93U C105G	≤ -4.2
A19G A23U C57G G84U C93G G94C A122U A142C	≤ -4.2
A19C C35G U53A C57A G92A U101C	-4.13
C18U C93U	-1.73
A19C C51U G92U C93G A113G G126U A142G G143C	≤ -4.2
C18U A39U G86U U90A	≤ -4.2
A19G G58A C85A G94C U102G A142C	≤ -4.2
A19C A20C U148A	-3.05

Variant	polymerase ribozyme fitness (log ratio)
C18U A19C C43U G81A G94U C118U G133U	≤ -4.2
A19C U61A C93G A106U C149A	≤ -4.2
A19C A30U A52G A107U C116G C118G A142C A150U	≤ -4.2
C18G U44G U55G G58C C93A	≤ -4.2
A19C C35U C95U	0.438
C18G C85A G88U C123G U148A	≤ -4.2
C18U G65U A73G C85U G141C	≤ -4.2
C18G G48A C69U G88A A121U G141C	≤ -4.2
A19G C85U C93G	≤ -4.2
C18U C132U U135A	-2.33
C18U U77C G83A C99G A120C	≤ -4.2
A19C G74C C116A	≤ -4.2
A19C A64U C79A C93U C99A	≤ -4.2
C18G C76A C85U G141A	≤ -4.2
A19C A41C G70U G84A U101G G126C U135C	≤ -4.2
C18U C96U	-0.659
A19G C38U A52G C75U G83U C85U G94A C103G	≤ -4.2
C18G U56A A60G G74A C85G	≤ -4.2
A19C A21C A26U A52G U78A G92A G152C	≤ -4.2
C18U G140C	-4.17
C18U A24G A37C	≤ -4.2
C18U C108U	-3.57
C18U C85U C105U	0.286
A19C A47C G86C U90G	≤ -4.2

Variant	polymerase ribozyme fitness (log ratio)
A19G A52U U53A U82C C87G	≤ -4.2
A19G A41C C43U C54G C63A C76G	≤ -4.2
C18U C38U U55C A97U A120C	-1.43
A19G A47C C54U C85G C96G G140C G143A U145A	≤ -4.2
A19G G25U C36U U56C C96G U144A	≤ -4.2
C18G U44A A89U C93G U109C U127A	≤ -4.2
C18U G25U G48A G83U	≤ -4.2
C18U C43U G50U U61A G80C	≤ -4.2
A19G C95U A98G U109C G136U U151C	≤ -4.2
A19C A49G A66C C105U U144C	≤ -4.2
A19C A24U A26C G48C U61G G68U U77G G141A C149G	≤ -4.2
C18U G86U	-2.18
C18G C63G G68U G71A U78G C85G G100A G141U	≤ -4.2
A19C A24G C36U C57A U111G A121G	≤ -4.2
A19G A23U G92A U148C	≤ -4.2
A19C A28C C93G U102G	≤ -4.2
C18U U53A G74C A107U U135C G140C	≤ -4.2
C18G C38A G81A U102G U109C U144C	≤ -4.2
C18U A24C A137G	≤ -4.2
A19C C36U G59U A60G C93U U104G	-3.23
C18U A52G G94C A97C C114U C149A	≤ -4.2
C18U A40C A52G G86U U90C U135G	≤ -4.2
A19G C85U	-1.3
C18G U33G U101G A122G	≤ -4.2

Variant	polymerase ribozyme fitness (log ratio)
A19C A22U A89C C96G A97U C99U U104G A115C	≤ -4.2
A19G A26U U31C G92A C96G C103U	≤ -4.2
A19G A28G C38U A49C G58A G65A C76A C93G	≤ -4.2
A19G G50U U55A C96U U145G	-2.18
C18U A20G C76A U77A G92U U101A U134G	≤ -4.2
C18G C51U U53G A60U C85A G94U A98U C99G	≤ -4.2
A19G A37G U53G C96U	≤ -4.2
A19C A28U U55G U78C A91U	≤ -4.2
A19C A107G	-3.75
A19C A23C U53A C69U C75U G80A	≤ -4.2
C18U G46U G50C G83A	≤ -4.2
C18U A37U U55C C108A A110G	≤ -4.2
C18U A19U A24G G74U C79U	≤ -4.2
C18U A24G G25U G48A G50C C51A C76A G83A C85A U102G G143A	≤ -4.2
A19C A20U C85A A91U C96G G124A U144A	≤ -4.2
A19C U55A C123G C125A U148G	≤ -4.2
C18U A22G A60G G65A C96U G140U	≤ -4.2
C18G C85A U145G A147U	-0.193
A19C C32U C69A U77C C103A G143A U145A	≤ -4.2
C18U U31G A37C C54U A91C U134C U146C	≤ -4.2
A19G G25A G50C G62U G92A A113U C118U A120C A150C	≤ -4.2
C18G C95U	0.206
A19C A40G C75G G88C	≤ -4.2
A19G G25A A28C G65C C95U C96U U146C U151A	≤ -4.2

Variant	polymerase ribozyme fitness (log ratio)
C18U A49G G50U A66C U78G C85G G88A A119G C125A	≤ -4.2
C18U A20C C54U C93U C96G C105U U130A C132G	≤ -4.2
A19G A30U A66G G74A C105U A121U C129A	≤ -4.2
A19C A24G C72A C125A	≤ -4.2
A19C A22U G34A G50A U56A G59A C93A C123G U127C A138G U144A	≤ -4.2
A19G A40C C85G A147C	-3.28
C18G A52U C76U C79G C132G U139C	≤ -4.2
C18U G25U U77G C87G C114U	≤ -4.2
A19C A41G C131A A138U	≤ -4.2
A19C A23U A37U C43U A52U G140C	≤ -4.2
C18U A52G A91G C123G	≤ -4.2
A19C U78A C125G	≤ -4.2
A19C G59A U144C	1.14
C18U A40C C57A G126U	-0.291
A19C C93G A107G	≤ -4.2
A19C A52G G92C C96A U151G	≤ -4.2
C18U A21C G42C C93U	≤ -4.2
A19C A29U U56A G59A A73G C76A U78A G83U G141C	≤ -4.2
A19C G88C	-3.96
C18U A23C C85A G133C	≤ -4.2
C18U A49C C87G G100A	≤ -4.2
C18G G80U C116U	-1.62
A19C A29C C99G	≤ -4.2
A19C A91U G152C	≤ -4.2

Variant	polymerase ribozyme fitness (log ratio)
C18U A19U A28C U56C C87U	≤ -4.2
C18U C72G U77G G84A C114G	≤ -4.2
A19C A49C G50C G58A G74U C85U C114A C116U	≤ -4.2
C18G C27U A40U C51U A52C C57G G88U C105U	≤ -4.2
A19G A29G A52G C93U G100A G133C	≤ -4.2
A19C G58C C87A	≤ -4.2
C18U A30C U31G A41C G83C G86U C105U	≤ -4.2
C18G A137G U145G	-2.16
A19C C32A G46A G59A G71A G74U A91U A97G	≤ -4.2
A19C C32U A49G G59U	≤ -4.2
A19C G58C C87G C132A	≤ -4.2
A19C A20U U61C C76A U82C A91U U130G U146C	≤ -4.2
C18G C57A U134G U145A	-3.18
A19G A20U A37C U55A A91G A110C	≤ -4.2
C18U A26G G58A C87A A97U G133A	≤ -4.2
A19C C72U U77G C93G C96A C118U G140A	≤ -4.2
A19C C43A G59C C116A	≤ -4.2
A19G G42A G94A U104C A142G	≤ -4.2
A19C A107U U135C	≤ -4.2
A19C A41U G46C G67U U78G G84U C108U	≤ -4.2
C18U A21U G42A G58C C95U C116U U145C	≤ -4.2
C18U C43G U56A C79U G83U C95A U148G	≤ -4.2
C18U A23U A26U A30U C87U C96G C108U G136A	≤ -4.2
A19G C27U U55A C75G C95U A110U A113G C114A G141C	≤ -4.2

Variant	polymerase ribozyme fitness (log ratio)
A19C A28C U135G	≤ -4.2
C18G U31C G59C G81A C116G A138G	-4.15
C18G U55A A98G A106G G112U A120U	-3.87
C18U C87U G94C C123A G141A	≤ -4.2
C18U A19G G94A	-2.01
A19C C54A C96U A122G G133C	-2.39
A19G C32A A47C G59C C85U A106C G143C	≤ -4.2
A19G G42A G58A A60U U61A A97G C125A	≤ -4.2
C18U A30G A142U U151G	≤ -4.2
C18G U146C	-0.0606
C18U C76A C95U C99A U101G A107U C149G	≤ -4.2
A19C C87U	-0.722
A19C C54G C93A	≤ -4.2
A19C A73U C87U U90G C99U G126U C131U A142G	≤ -4.2
C18U A28C C87G G124U U139G U146G	≤ -4.2
C18U C27G G92U C103G	≤ -4.2
A19G C85U G94U G141U	0.14
A19C G50C C87A C114U G143A	≤ -4.2
A19G A39U U55A C57U G100A C116U U139C	≤ -4.2
A19G G42U A47G G81C G94A U144C	≤ -4.2
A19G G25C G59A C93U	≤ -4.2
C18U U53G C54A A91G A110G C114G	≤ -4.2
A19C A30G C72U U82A C85U A91U	≤ -4.2
